Measured values published in the supplement of paper PMC3334620.
In all, about 33,000 sequences were measured (“E-score (-0.5 to 0.5)”: median about -0.013, highest 2% from about 0.3 on). Some of the results follow.

The sequences below were run against T1, Msn1 (UniProt P22148) (assay: PBM E-score (8-mer binding enrichment) (E-score (-0.5 to 0.5)); higher = stronger / more preferred TF binding; most listed sequences are background and not binding sites). Conditions: protein concentration: 200 nM; construct: GST-full length.
T1 sequence: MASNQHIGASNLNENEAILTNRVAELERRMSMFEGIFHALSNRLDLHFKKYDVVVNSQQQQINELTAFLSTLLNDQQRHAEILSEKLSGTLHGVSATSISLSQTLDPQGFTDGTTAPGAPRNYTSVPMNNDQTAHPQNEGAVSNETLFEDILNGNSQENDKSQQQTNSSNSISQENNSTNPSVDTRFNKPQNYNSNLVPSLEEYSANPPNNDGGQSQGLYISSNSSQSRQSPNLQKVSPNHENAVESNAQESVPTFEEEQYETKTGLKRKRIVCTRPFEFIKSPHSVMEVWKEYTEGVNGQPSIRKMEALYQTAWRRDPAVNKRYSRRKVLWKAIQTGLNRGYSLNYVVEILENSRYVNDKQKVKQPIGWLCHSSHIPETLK
Procedure: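 Universal 'all 10-mer' protein binding microarrays (Agilent AMADID 015681) probed with GST-tagged S. cerevisiae TFs (full-length or DBD) made by in vitro transcription/translation (PURExpress), about 100-200 nM. Bound TF was detected with fluorescent anti-GST. Each ungapped 8-mer (which stands for itself and its reverse complement) is scored by the PBM enrichment score (E-score), a modified Wilcoxon-Mann-Whitney statistic from -0.5 to +0.5, computed with the Universal PBM Analysis Suite. Scale: above 0.35 generally sequence-specific binding.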

| Sequence | PBM E-score |
| --- | --- |
| AAAAAACC | 0.21 |
| TGGGACCA | -0.117 |
| AGAGCCAA | -0.0542 |
| GCTGGACA | 0.276 |
| CCGCGAGG | 0.0728 |
| CTCTTCGA | -0.168 |
| AGTCTCCC | -0.192 |
| AGCGGACG | 0.0534 |
| AGCTATAT | -0.00185 |
| CGCTGAAA | -0.0354 |
| CCCTTCCC | -0.207 |
| TCAATTCA | -0.0849 |
| GCCTCCTA | -0.184 |
| GGGCGAGA | -0.16 |
| GTAGGGAC | 0.178 |
| GAGGCGGC | -0.13 |
| ACTGGTGC | -0.177 |
| TAGCCTAA | -0.184 |
| CATATGAG | 0.153 |
| GTACGGTA | -0.0464 |
| GGCAGGAA | -0.075 |
| ATCCGAAA | 0.057 |
| ACCAAGAC | 0.248 |
| ATGGCCTC | -0.118 |
| AACCGAGC | -0.0343 |

| Sequence | PBM E-score |
| --- | --- |
| AGTGCAAG | 0.104 |
| AGCGAGTC | -0.241 |
| CACAATTC | 0.176 |
| GAGCGCCC | -0.218 |
| TACATAAA | 0.15 |
| CGGCCGAG | 0.156 |
| CCCCAAGC | 0.0454 |
| ACAACGCC | 0.0528 |
| TCAATAGA | -0.0443 |
| GAGAATGC | 0.0856 |
| CCTAGGGA | -0.0411 |
| GTGCGATA | -0.01 |
| GCGTGAAA | 0.179 |
| ACTCCAAT | -0.00308 |
| GAGTGTGC | 0.0104 |
| ATGACTGC | -0.0346 |
| TCCTCCAA | -0.142 |
| CTGAACTC | -0.0622 |
| ATGACTTG | 0.0928 |
| ACTATGTA | 0.094 |
| AATACCCG | -0.00878 |
| CTGGCAAA | -0.00405 |
| ATCTTCGA | -0.0568 |
| GCCCACGA | -0.0363 |
| GGGCGAAA | 0.124 |

| Sequence | PBM E-score |
| --- | --- |
| ATTCTGCC | 0.0249 |
| TAGCAGGA | 0.0461 |
| AAGTTCTG | 0.07 |
| CAGAGACC | -0.103 |
| AATAGAAG | 0.155 |
| CTTAGAAA | 0.164 |
| CGCGCGGA | 0.00041 |
| CTCGCCTC | -0.144 |
| CTGGATAC | -0.0105 |
| CTGCTCGC | 0.0139 |
| AACCTCGG | 0.102 |
| GGTTAGAC | 0.076 |
| AGTTAGAT | -0.0679 |
| AGAGACTG | -0.231 |
| ACCGAGCA | -0.177 |
| ACTCGCCA | -0.00104 |
| ATCACCGC | -0.177 |
| GGAATGCA | -0.141 |
| ACGAGTTG | 0.0583 |
| ACGCGTTA | 0.041 |
| GTTTATCA | 0.165 |
| GAAAACGC | 0.0675 |
| CCACAGAA | 0.11 |
| AACACGAT | 0.0472 |
| AATCGCAC | -0.135 |

| Sequence | PBM E-score |
| --- | --- |
| ATTGGGTA | 0.165 |
| ATTTATTC | 0.241 |
| GATCGATA | 0.136 |
| GGTACATA | 0.341 |
| ACTAGAAC | 0.0454 |
| CTCATAGC | -0.264 |
| ACTTGCCA | 0.052 |
| ATGTGAGG | 0.0395 |
| GAATTTTA | 0.148 |
| AGGGGGAT | -0.258 |
| CACTTAGG | 0.0127 |
| ATTATAGA | 0.118 |
| CTCTTCGC | -0.0905 |
| CAGGGGAG | -0.294 |
| CGGTTACG | -0.0655 |
| GCAACTCA | 0.039 |
| CCGGCGAC | -0.125 |
| ACAATAAC | 0.252 |
| AGGGTTCC | 0.0448 |
| CTGAAGCA | -0.12 |
| ACAAAAGG | 0.229 |
| CCGCATCC | -0.175 |
| TAGCCTGA | -0.0702 |
| CTACCCAG | -0.176 |
| ACGTAATA | -0.0123 |

| Sequence | PBM E-score |
| --- | --- |
| GGCCCTTA | -0.169 |
| CGGACATC | 0.387 |
| CGCCGAAA | 0.0948 |
| TATGGAAA | 0.071 |
| CAGGGTAA | -0.144 |
| CCTACTAG | -0.0734 |
| CAGGATCA | -0.0384 |
| CGCGGACC | 0.0148 |
| GGTCAAGA | -0.0244 |
| AGTGGATC | -0.0598 |
| ATATGGCG | 0.0445 |
| AGCACACG | -0.0792 |
| AAAATAAC | 0.0645 |
| CACGTGAA | -0.00614 |
| AGCCCAAT | -0.0201 |
| GTCGGCAC | -0.0725 |
| ACGAATGC | -0.0179 |
| ACTTTTCA | 0.151 |
| CCTTTGTA | 0.163 |
| CCACTGGG | 0.0913 |
| AGGCAATC | -0.122 |
| CGGGATCA | -0.189 |
| AAGTACGT | 0.159 |
| ATCGCTTG | -0.0704 |
| CACTCCGC | -0.0632 |

| Sequence | PBM E-score |
| --- | --- |
| ACTTTCAG | 0.0788 |
| GCACTCCA | -0.172 |
| GCCGAGAC | 0.0883 |
| CATATCTC | 0.0938 |
| ACGATCAT | -0.124 |
| CAGACAGA | 0.0672 |
| CATCCCAA | 0.148 |
| GGTACGAC | -0.0567 |
| GGCTACTA | -0.016 |
| CTCGATGC | -0.106 |
| AACTAAGT | -0.0397 |
| GGCCAAGA | -0.148 |
| CGTGAGAG | -0.269 |
| CCCTGCAG | -0.245 |
| CCTTCACG | 0.0646 |
| CCAAAGTC | 0.113 |
| CGTTTTGC | -0.0285 |
| ATGTGTCC | 0.438 |
| GGCTGGAA | -0.193 |
| CTCGCACA | -0.0644 |
| GCTGGGGA | -0.22 |
| CTGACAGC | -0.0864 |
| GCATTACA | 0.0174 |
| CAAAAACC | 0.133 |
| AAAACCCG | 0.0176 |

| Sequence | PBM E-score |
| --- | --- |
| CTATTCAC | 0.097 |
| CAAGAAGA | 0.0336 |
| AAGAGTGT | 0.0143 |
| ACATCACT | -0.0274 |
| CATCAACG | -0.0418 |
| GATAGGAC | 0.0626 |
| GGGTTAGA | -0.178 |
| CAGCAATC | -0.0488 |
| ACGACATG | 0.364 |
| TGGTACCA | -0.0646 |
| ACCTACAT | -0.0106 |
| CGCAAGAG | -0.0111 |
| ACGGTACT | -0.0539 |
| GGATAGAC | -0.0706 |
| GGGGCTAC | -0.288 |
| AACATGAT | 0.173 |
| CACGAACC | -0.099 |
| AAACACAC | 0.0922 |
| AAGCGATC | 0.0576 |
| TAATCCTA | -0.123 |
| AAATCGCT | -0.11 |
| CAGTAGCC | -0.286 |
